# This is one part of the list.
# B1: Spy0252 (Streptococcus pyogenes), Q9A1I9_STRP1 (protein)
# chain: MNMKKLASLAMLGASVLGLAACGGKSQKEAGASKSDTAKTEITWWAFPVFTQEKAEDGVGTYEKKLIAAFEKANPEIKVKLETIDFTSGPEKITTAIEAGTAPDVLFDAPGRIIQYGKNGKLADLNDLFTEEFTKDVNNDKLIQASKAGDTAYMYPISSAPFYMALNKKMLKDAGVLDLVKEGWTTDDFEKVLKALKDKGYNPGSFFANGQGGDQGPRAFFANLYSSHITDDKVTKYTTDDANSIKAMTKISNWIKDGLMMNGSQYDGSADIQNFANGQTSFTILWAPAQPGIQAKLLEASKVDYLEIPFPSDDGKPELEYLVNGFAVFNNKDEQKVAASKTFIQFIADDKEWGPKNVVRTGAFPVRTSYGDLYKDKRMEKIAEWTKFYSPYYNTIDGFAEMRTLWFPMVQAVSNGDEKPEDALKAFTEKANKTIKKTQ
# Experiments:
# Assay in all cases: glycan array binding signal (z-score within array); higher = stronger binding
# Details in all cases: glycan notation: IUPAC condensed, linker removed
# [1] = target: Gal3S(b1-3)[Fuc(a1-4)]GlcNAc
# Outline: (§1)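 Glycan array data were curated from 3228 arrays in the Consortium for Functional Glycomics database and kept only where the protein sequence was available. Glycan names were converted to IUPAC-condensed notation, and columns mapping to the same glycan were averaged. The binding signal is a within-array Z-score, averaged across arrays of the same protein sequence at different concentrations or buffers and across linkers. Negative Z-scores can be read as non-binding.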
# [2] = target: Gal3S(b1-4)Glc
# Outline: as §1
# [3] = target: Gal3S(b1-4)Glc6S
# Outline: as §1
# [4] = target: Gal3S(b1-4)GlcNAc
# Outline: as §1
# [5] = target: Gal3S(b1-4)GlcNAc6S
# Outline: as §1
# [6] = target: Gal3S(b1-4)[Fuc(a1-3)]Glc
# Outline: as §1
# [7] = target: Gal3S4S(b1-4)GlcNAc
# Outline: as §1
# [8] = target: Gal3S6S(b1-4)GlcNAc
# Outline: as §1
# [9] = target: Gal3S6S(b1-4)GlcNAc6S
# Outline: as §1
# [10] = target: Gal4S(b1-4)GlcNAc
# Outline: as §1
# [11] = target: Gal4S6S(b1-4)GlcNAc
# Outline: as §1
# [12] = target: Gal6S(b1-4)Glc
# Outline: as §1
# [13] = target: Gal6S(b1-4)Glc6S
# Outline: as §1
# [14] = target: Gal6S(b1-4)GlcNAc
# Outline: as §1
# [15] = target: Gal6S(b1-4)GlcNAc6S
# Outline: as §1
# [16] = target: GalNAc(a1-3)Gal
# Outline: as §1
# [17] = target: GalNAc(a1-3)GalNAc
# Outline: as §1
# [18] = target: GalNAc(b1-3)Gal
# Outline: as §1
# [19] = target: GalNAc(b1-3)Gal(a1-4)Gal(b1-4)GlcNAc
# Outline: as §1
# [20] = target: GalNAc(b1-3)Gal(a1-4)Gal(b1-4)GlcNAc(b1-3)Gal(b1-4)Glc
# Outline: as §1
# [21] = target: GalNAc(b1-3)GalNAc
# Outline: as §1
# [22] = target: GalNAc(b1-4)GlcNAc
# Outline: as §1
# [23] = target: GalNAc(b1-4)GlcNAc(b1-2)Man(a1-3)[GalNAc(b1-4)GlcNAc(b1-2)Man(a1-6)]Man(b1-4)GlcNAc(b1-4)GlcNAc
# Outline: as §1
# [24] = target: Glc(a1-4)Glc
# Outline: as §1
# [25] = target: Glc(a1-6)Glc(a1-6)Glc
# Outline: as §1
# [26] = target: Glc(b1-4)Glc
# Outline: as §1
# [27] = target: Glc(b1-6)Glc
# Outline: as §1
# [28] = target: GlcA(b1-3)Gal
# Outline: as §1
# [29] = target: GlcA(b1-3)GlcNAc
# Outline: as §1
# [30] = target: GlcA(b1-6)Gal
# Outline: as §1
# [31] = target: GlcNAc(a1-3)Gal(b1-4)GlcNAc
# Outline: as §1
# [32] = target: GlcNAc(a1-4)Gal(b1-3)GlcNAc
# Outline: as §1
# [33] = target: GlcNAc(a1-4)Gal(b1-4)GalNAc
# Outline: as §1
# [34] = target: GlcNAc(a1-4)Gal(b1-4)GlcNAc
# Outline: as §1
# [35] = target: GlcNAc(a1-4)Gal(b1-4)GlcNAc(b1-3)Gal(b1-4)Glc
# Outline: as §1
# [36] = target: GlcNAc(a1-4)Gal(b1-4)GlcNAc(b1-3)Gal(b1-4)GlcNAc
# Outline: as §1
# [37] = target: GlcNAc(a1-4)Gal(b1-4)GlcNAc(b1-3)Gal(b1-4)GlcNAc(b1-3)Gal(b1-4)GlcNAc
# Outline: as §1
# [38] = target: GlcNAc(a1-4)Gal(b1-4)GlcNAc(b1-3)Gal(b1-4)[Fuc(a1-3)]GlcNAc(b1-3)Gal(b1-4)[Fuc(a1-3)]GlcNAc
# Outline: as §1
binder,measurement,setting,value
B1,glycan array binding signal (z-score),[1],-0.259
same,glycan array binding signal (z-score),[2],0.647
same,glycan array binding signal (z-score),[3],0.257
same,glycan array binding signal (z-score),[4],-0.258
same,glycan array binding signal (z-score),[5],-0.261
same,glycan array binding signal (z-score),[6],-0.254
same,glycan array binding signal (z-score),[7],-0.245
same,glycan array binding signal (z-score),[8],-0.149
same,glycan array binding signal (z-score),[9],-0.264
same,glycan array binding signal (z-score),[10],-0.249
same,glycan array binding signal (z-score),[11],-0.152
same,glycan array binding signal (z-score),[12],-0.255
same,glycan array binding signal (z-score),[13],-0.262
same,glycan array binding signal (z-score),[14],-0.229
same,glycan array binding signal (z-score),[15],-0.268
same,glycan array binding signal (z-score),[16],-0.212
same,glycan array binding signal (z-score),[17],-0.201
same,glycan array binding signal (z-score),[18],-0.15
same,glycan array binding signal (z-score),[19],2.25
same,glycan array binding signal (z-score),[20],5.38
same,glycan array binding signal (z-score),[21],-0.264
same,glycan array binding signal (z-score),[22],-0.255
same,glycan array binding signal (z-score),[23],-0.234
same,glycan array binding signal (z-score),[24],0.228
same,glycan array binding signal (z-score),[25],-0.226
same,glycan array binding signal (z-score),[26],0.186
same,glycan array binding signal (z-score),[27],-0.246
same,glycan array binding signal (z-score),[28],-0.259
same,glycan array binding signal (z-score),[29],-0.07
same,glycan array binding signal (z-score),[30],-0.146
same,glycan array binding signal (z-score),[31],-0.246
same,glycan array binding signal (z-score),[32],-0.246
same,glycan array binding signal (z-score),[33],-0.243
same,glycan array binding signal (z-score),[34],-0.254
same,glycan array binding signal (z-score),[35],0.073
same,glycan array binding signal (z-score),[36],0.176
same,glycan array binding signal (z-score),[37],-0.252
same,glycan array binding signal (z-score),[38],-0.027
